According to PubChem BioAssay AID623901 (Broad Institute, 2012):
The campaign covered roughly 340,000 compounds. About 470 (0.14%) were called active. The inconclusive results got no clear call from the source; some entries with a clear call stand among them for comparison.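 Rule for the calls: active = mean activation of 30% or more, with every replicate also reaching 30%; inconclusive = mean activation of 30% or more but some replicate falls short; inactive = the rest.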

Experiment: small molecules raising miR-122 sensor signal – cell-based, Huh7 psiCHECK-miR122, Renilla luciferase, single point, primary screen (AID 623901);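 note: 0% = median of neutral control wells and 100% = median of positive control wells; higher luciferase signal means stronger suppression of miR-122 activity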
Settings: 48 h, at 12.5 µM, hits give high values

| SMILES | activation |
| --- | --- |
| C[C@H]1CN([C@@H](C)CO)C(=O)c2cc(C#CC3CC3)cnc2O[C@@H]1CN(C)Cc1ccncc1 | inactive: 0.124% |
| CO[C@@H]1CN(C)C(=O)c2ccc(NC(=O)c3nc4ccccc4s3)cc2OC[C@H](C)N(Cc2cccnc2)C[C@H]1C | inconclusive: 30.6% |
| COCC#Cc1ccc2c(c1)O[C@@H](CN(C)C(=O)C1CCOCC1)[C@H](C)CN([C@H](C)CO)S2(=O)=O | inactive: -8.63% |
| CC(=O)N1[C@H](CN(C(=O)c2ccc(F)cc2)C(C)C)[C@@H](c2ccccc2)[C@@H]1CO | inconclusive: 83.3% |
| CCNC(=O)C[C@H]1CC[C@H]2[C@H](COc3ccc(NC(=O)Nc4cccc(OC)c4)cc3C(=O)N2C)O1 | inconclusive: 33.3% |
| CC(=O)N1[C@H](CO)[C@@H](c2ccccc2)[C@H]1CN(CC(C)C)C(=O)c1ccccn1 | inconclusive: 50% |
| C[C@H](CO)N1C[C@H](C)[C@@H](CN(C)S(C)(=O)=O)Oc2ncc(C#CC3(O)CCCC3)cc2C1=O | inactive: 5.52% |
| COc1ccccc1C#Cc1ccc2c(c1)O[C@@H](CN(C)Cc1cccnc1)[C@@H](C)CN([C@H](C)CO)S2(=O)=O | inconclusive: 30.1% |
| CCOC(=O)/C(=C\c1cccnc1)C(=O)c1cc(C(C)=O)c(Nc2ccccc2)s1 | inconclusive: 31.4% |
| CC(C)C(=O)Nc1ccc2c(c1)C(=O)N(C)[C@@H]1CC[C@H](CC(=O)NCc3cccc(F)c3)O[C@H]1CO2 | inconclusive: 43.3% |
| CN1C(=O)c2cc(NC(=O)c3cccc(F)c3)ccc2OC[C@@H]2O[C@@H](CC(=O)NC3CCC3)CC[C@@H]21 | inconclusive: 33.3% |
| COCC(=O)N(C)C[C@@H]1[C@H](c2ccc(-c3ccccc3)cc2)[C@@H](CO)N1C(C)=O | inconclusive: 58.3% |
| CCN(C[C@H]1[C@H](c2ccccc2)[C@H](CO)N1C(=O)COC)S(C)(=O)=O | inconclusive: 50% |
| CCNC(=O)C[C@H]1CC[C@H]2[C@@H](COc3ccc(NC(=O)c4ccccc4)cc3C(=O)N2C)O1 | active: 50% |
| C[C@@H]1CN([C@H](C)CO)C(=O)c2cc(NC(=O)Nc3ccc(C(F)(F)F)cc3)ccc2O[C@@H]1CN(C)CC1CCCCC1 | inconclusive: 41.9% |
| COCC(=O)N1C[C@H]2[C@@H](c3ccccc31)[C@H](CO)N2C(=O)Nc1ccccc1Cl | inconclusive: 31.5% |
| C[C@@H]1CN([C@@H](C)CO)C(=O)c2cc(-c3ccc(C(=O)N(C)C)cc3)cnc2O[C@H]1CN(C)C(=O)c1cccnc1 | inactive: -1.03% |
| C[C@@H]1CN([C@@H](C)CO)S(=O)(=O)c2ccc(C#Cc3ccncc3)cc2O[C@@H]1CN(C)C(=O)Nc1ccc2c(c1)OCO2 | active: 43.2% |
| CCNC(=O)Nc1ccc2c(c1)C(=O)N(C)[C@H]1CC[C@H](CC(=O)NCCOC)O[C@@H]1CO2 | inconclusive: 50% |
| Cc1cnc(NC(=O)c2cc3c(C)nn(-c4ccccc4)c3s2)s1 | inconclusive: 36.8% |
| CCCNC(=O)C[C@H]1CC[C@@H]2[C@H](COc3ccc(NC(=O)c4cc(F)cc(F)c4)cc3C(=O)N2C)O1 | inconclusive: 43.3% |
| Cc1ccc(-n2ncc(C(=O)Nc3cc(Cl)ccc3C)c2C2CCNCC2)cc1C | active: 35.7% |
| COCC(=O)Nc1ccc2c(c1)C(=O)N(C)[C@@H]1CC[C@@H](CC(=O)OC)O[C@@H]1CO2 | inconclusive: 45.8% |

| SMILES | activation |
| --- | --- |
| CN(C)CCCn1cnc2c(c1=N)C(c1ccccc1)c1ccc3ccccc3c1O2 (configuration not stated) | inconclusive: 32.1% |
| CC(C)NC(=O)Nc1ccc2c(c1)C(=O)N(C)[C@@H]1CC[C@@H](CC(=O)NCC(F)(F)F)O[C@@H]1CO2 | active: 36.7% |
| CCOc1cc(/C=C2\CN(CC)C/C(=C\c3ccc(O)c(OCC)c3)C2=O)ccc1O | inconclusive: 35.8% |
| C[C@@H]1CN([C@@H](C)CO)C(=O)c2cc(C#Cc3cccc(F)c3)cnc2O[C@@H]1CN(C)CC1CCOCC1 | inactive: 4.09% |
| Nc1ccc(Oc2ccc(Br)cc2)cc1 | active: 35.3% |
| COc1cccc(-c2cnc3c(c2)C(=O)N([C@H](C)CO)C[C@H](C)[C@H](CN(C)C(=O)CC2CC2)O3)c1 | inactive: -16.3% |
| CN1C(=O)c2cc(NC(=O)c3cccc(F)c3)ccc2OC[C@H]2O[C@H](CC(=O)O)CC[C@@H]21 | inconclusive: 60% |
| C[C@H](CO)N1C[C@H](C)[C@@H](CN(C)Cc2ccc3c(c2)OCO3)Oc2c(NC(=O)C3CCOCC3)cccc2C1=O | inactive: -319% |
| Cc1ccc(C)c(C(=O)Cn2ncc(Cl)c(Cl)c2=O)c1 | inconclusive: 32.5% |
| C[C@H]1CN([C@@H](C)CO)S(=O)(=O)c2ccc(C#CC(C)(C)O)cc2O[C@H]1CN(C)C(=O)C1CCC1 | inactive: 4.86% |
| Cc1ccc(S(=O)(=O)NC23CC4CC(CC(C4)C2)C3)cc1 | inactive: -106% |
| CC(=O)c1c(C)[nH]c(C(=O)OCCCCN2C(=O)c3ccccc3C2=O)c1C | inconclusive: 33.6% |
| CN(c1ccccc1)S(=O)(=O)c1ccc(C(=O)Nc2cccc(S(=O)(=O)N3CCOCC3)c2)cc1 | inconclusive: 33.2% |
| CO[C@H]1CN(C)C(=O)c2cc(NC(=O)C3CC3)ccc2OC[C@H](C)N(CCc2ccccc2)C[C@H]1C | inconclusive: 30.8% |
| COCCN(C[C@@H]1[C@@H](c2ccccc2)[C@H](CO)N1C(=O)C1CCC1)C(C)=O | inconclusive: 108% |
| NC(=O)c1cn(-c2ccccc2)nc1-c1cc2ccccc2oc1=O | active: 77.1% |
| CCN(C[C@H]1N[C@@H](CO)[C@@H]1c1ccc(C2=CCCC2)cc1)C(=O)c1cccnc1 | inconclusive: 125% |
| CCC(=O)N1C[C@H]2[C@@H](c3ccccc31)[C@H](CO)N2Cc1cc(F)ccc1F | inconclusive: 36.5% |
| CC(C)C#Cc1ccc2c(c1)O[C@@H](CN(C)C(=O)NC(C)C)[C@H](C)CN([C@H](C)CO)S2(=O)=O | inactive: -66.1% |
| C[C@@H]1CN([C@H](C)CO)C(=O)c2cc(NC(=O)Nc3cccc4ccccc34)ccc2O[C@@H]1CN(C)C(=O)Nc1ccccc1 | inactive: -90.2% |
| COc1ccccc1-[n+]1c(C)cc(/C=C2\Sc3ccccc3N2C)cc1C | active: 69.5% |
| COc1ccc(CNC(=O)NCCc2c[nH]c3ccccc23)cc1 | inconclusive: 30.5% |
| OC(c1cc(-c2ccc(C(F)(F)F)cc2)nc(C(F)(F)F)c1)C1CCCCN1 (configuration not stated) | inconclusive: 30.3% |

| SMILES | activation |
| --- | --- |
| COc1cccc(S(=O)(=O)N(C)C[C@@H]2Oc3cc(C4=CCCCC4)ccc3S(=O)(=O)N([C@H](C)CO)C[C@H]2C)c1 | active: 36.2% |
| CC(C)C(=O)Nc1ccc2c(c1)C(=O)N(C)[C@H]1CC[C@@H](CC(=O)NCCCN(C)C)O[C@H]1CO2 | inconclusive: 41.7% |
| C[C@@H]1CN([C@@H](C)CO)S(=O)(=O)c2ccc(-c3ccc(C#N)cc3)cc2O[C@H]1CN(C)C(=O)C1CC1 | inactive: -37.4% |
| CCCC#Cc1cnc2c(c1)C(=O)N([C@H](C)CO)C[C@H](C)[C@@H](CN(C)Cc1ccccc1)O2 | inactive: 2.96% |
| C[C@H]1CN([C@@H](C)CO)S(=O)(=O)c2ccc(C#Cc3cccc(F)c3)cc2O[C@@H]1CN(C)C(=O)CN1CCOCC1 | inactive: -40.7% |
| O=C(NCCCN1CCCC1)c1ccc(CSCc2cccc(Cl)c2)o1 | inconclusive: 35.4% |
| C/C=C/c1ccc2c(c1)O[C@H](CN(C)C(=O)Nc1cccc(F)c1)[C@H](C)CN([C@@H](C)CO)S2(=O)=O | inconclusive: 32.3% |
| Oc1ccc(/C=N/Nc2nccnc2Cl)c(O)c1 | inconclusive: 31.7% |
| Cc1ccccc1-c1ccc([C@@H]2[C@@H](CO)N3CCCCN(C(=O)Nc4ccc(F)cc4)C[C@@H]23)cc1 | active: 30.8% |
| O=C(Nc1ncc(Cc2cccc(C(F)(F)F)c2)s1)c1ccc(-c2cccc([N+](=O)[O-])c2)o1 | active: 31.7% |
| CN1C(=O)c2cc(NC(=O)Cc3ccccc3)ccc2OC[C@@H]2O[C@@H](CC(=O)O)CC[C@H]21 | inconclusive: 58.3% |
| C[C@@H]1CN([C@@H](C)CO)S(=O)(=O)c2ccc(Br)cc2O[C@@H]1CN(C)CC1CCOCC1 | inactive: 5.96% |
| Cc1ccc(C(=O)n2nc(-c3ccccc3)nc2NCc2ccco2)cc1 | inconclusive: 36.9% |
| C[C@H]1CN([C@@H](C)CO)C(=O)c2cc(C#Cc3ccccc3F)cnc2O[C@@H]1CN(C)C(=O)C1CCCCC1 | inconclusive: 31.4% |
| O=S(=O)(N/N=C\c1cccn1-c1ccccc1)c1ccc2ccccc2c1 | inactive: -97.9% |
| O=C(Nc1ccc(CN2CCOCC2)cc1)c1ccc(-c2ccc(Cl)cc2Cl)o1 | active: 33.8% |
| Cc1c(CC(=O)NCCCC(=O)O)c(=O)oc2cc3occ(-c4ccccc4)c3cc12 | inconclusive: 30.3% |
| C[C@H](CO)N1C[C@H](C)[C@@H](CN(C)C(=O)c2ccc3c(c2)OCO3)Oc2cc(C#Cc3ccccc3F)ccc2S1(=O)=O | inconclusive: 32.5% |
| C[C@H](CO)N1C[C@H](C)[C@H](CN(C)Cc2ccc(C(=O)Nc3ccccc3N)cc2)Oc2ccc(NS(=O)(=O)c3cccs3)cc2CC1=O | inactive: -104% |
| CC(C)CC#Cc1cnc2c(c1)C(=O)N([C@@H](C)CO)C[C@@H](C)[C@H](CN(C)CC1CCOCC1)O2 | inactive: 3.62% |
| C[C@@H]1CN([C@@H](C)CO)C(=O)c2cc(NS(=O)(=O)c3ccc(F)cc3)ccc2O[C@@H]1CN(C)Cc1ccc(-c2ccccc2)cc1 | inconclusive: 49.3% |
